The supplement of paper PMC3334620
In all, about 33,000 sequences were measured (“E-score (-0.5 to 0.5)”: median about -0.054, highest 2% from about 0.35 on). The list shows a part of the results.

The sequences below were run against T1, Stb5 (UniProt P38699) (assay: PBM E-score (8-mer binding enrichment) (E-score (-0.5 to 0.5)); higher = stronger / more preferred TF binding; most listed sequences are background and not binding sites). Details: protein concentration: 200 nM; construct: GST-full length.
T1 sequence: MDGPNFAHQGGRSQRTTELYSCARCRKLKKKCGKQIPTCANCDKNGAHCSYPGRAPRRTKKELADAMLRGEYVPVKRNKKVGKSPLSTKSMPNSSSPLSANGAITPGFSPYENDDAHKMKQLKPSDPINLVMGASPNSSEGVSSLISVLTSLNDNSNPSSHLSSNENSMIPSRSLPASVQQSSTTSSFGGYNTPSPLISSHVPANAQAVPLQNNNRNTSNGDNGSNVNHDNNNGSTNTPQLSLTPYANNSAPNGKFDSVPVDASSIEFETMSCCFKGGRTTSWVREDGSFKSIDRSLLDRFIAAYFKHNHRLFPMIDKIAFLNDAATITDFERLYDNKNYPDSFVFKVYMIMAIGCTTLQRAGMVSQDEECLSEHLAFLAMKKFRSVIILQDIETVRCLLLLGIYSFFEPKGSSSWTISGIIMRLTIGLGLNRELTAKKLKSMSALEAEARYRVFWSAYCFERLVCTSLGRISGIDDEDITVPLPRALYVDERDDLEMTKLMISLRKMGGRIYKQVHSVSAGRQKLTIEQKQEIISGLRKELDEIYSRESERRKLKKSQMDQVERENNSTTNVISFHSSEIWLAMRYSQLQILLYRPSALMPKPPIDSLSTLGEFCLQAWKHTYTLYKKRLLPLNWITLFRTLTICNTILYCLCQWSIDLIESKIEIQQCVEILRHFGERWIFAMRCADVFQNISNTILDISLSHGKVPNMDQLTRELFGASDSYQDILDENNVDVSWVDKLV
Outline: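 GST-tagged yeast TFs (full-length or DNA-binding domain) were made by PURExpress in vitro transcription/translation and applied at about 100-200 nM to universal all-10-mer Agilent arrays. The arrays were made double-stranded by primer extension, on fresh or once-stripped slides. Bound protein was detected with fluorescent anti-GST, and scans were normalised with masliner. Each ungapped eight-base word, pooled with its reverse complement, received an E-score (modified Wilcoxon-Mann-Whitney statistic) from the Universal PBM Analysis Suite.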

Sequence | PBM E-score
CCGACGCA | 0.33
AACCGGAA | 0.141
CCGCGTCG | 0.283
AAGAGGGG | -0.0776
GCTTTAAA | 0.228
GATAATAC | 0.0961
AATGTAAG | -0.172
ATACATAT | -0.0276
ACGCAGGA | -0.24
CGCAAATA | 0.0421
CCCTCACC | -0.225
GATTTCAC | 0.111
GCCGCCAA | 0.24
GGGCGTCA | -0.101
ACGAAATC | -0.0971
AGCGATCG | -0.0556
CAATCGCC | 0.0945
AATTCAAT | 0.0123
ATCAGCAC | -0.156
GAACATGC | -0.305
AGTCGAAC | -0.14
TCCTCTAA | -0.28
TAGGGTGA | -0.139
CCAGACAA | -0.116
TAACCCGA | 0.225

Sequence | PBM E-score
TACTACGA | -0.136
CTACCCTA | -0.269
CCGAGTAA | 0.0188
CTGAAGAC | 0.0792
GACTGCAC | -0.173
ACGACTTA | -0.194
GGTCACAC | 0.0378
AGTCCAGA | -0.041
AGGAGCTA | -0.0145
ATCCCGTA | 0.205
AAGGGATC | -0.0944
CAGCACCG | 0.313
ACAAATAC | -0.0655
ATCGGGAC | 0.255
CGTCTCCA | 0.06
CCCACCCC | 0.165
AGCCTCTA | -0.177
CAGAGTGC | -0.193
AATAAACG | 0.0953
AGATATTC | -0.281
ACATCTTG | -0.169
AGGAGCAC | -0.252
CATGTGTA | -0.0555
AGGCCAAG | -0.115
AACAGGGA | -0.177

Sequence | PBM E-score
CGAATGCA | -0.296
ACGGCCTC | 0.197
ACTTGCTG | -0.274
TCCGCCAA | 0.295
CTCATTAC | -0.0772
GTTTACAA | 0.0105
GGCATGCA | 0.0835
AACCCTAC | -0.32
ATGGACCC | 0.137
ATTATACG | 0.173
GGCTCGTA | -0.0961
CATACCGA | 0.279
CCCCCAGC | -0.256
AAGACTTA | -0.277
AACCGAAA | -0.0451
AGTCTGCC | -0.237
AGACCTGC | -0.354
CGACTGGA | -0.0921
GGTCCCAA | 0.129
AAGCAGGA | 0.0511
CCATATGG | -0.258
TCTGCCAA | -0.231
GGCCTTAA | 0.377
AGACGATA | -0.0951
AATGCGGA | 0.2

Sequence | PBM E-score
TACCGGTA | 0.36
GGGCTGTA | -0.0498
ATGTGACC | 0.211
ATGAGAGA | -0.26
AACCAAGT | 0.00232
CTGAGTCA | -0.0224
ACCTATCA | -0.0967
CTATACGA | -0.028
CACGGCGG | 0.297
AAGATAAG | -0.159
ACCTAGTA | -0.226
TTCTGCAA | -0.0238
ATATGCTC | 0.0682
ATACGCAT | -0.16
CCTGGTCA | -0.214
AAGGCCCA | -0.17
AGATCGTG | -0.171
CACGCATG | -0.221
AATCATCT | -0.0985
ACTAGGGG | -0.175
TGCCTACA | -0.0809
GCGGGGAC | 0.322
GTGGTTAA | -0.133
AGGTATAA | 0.126
CGTCGTGC | 0.0585

Sequence | PBM E-score
AATGTAAA | -0.0417
GTTAGCTA | -0.0196
GCAGACAC | -0.0617
ATCAAATG | 0.0982
CCGGAATA | 0.101
GTTAAGCA | 0.135
AGAATGCA | -0.0784
CGGCATGC | 0.273
ATAGGAGA | -0.284
GGCCGTAA | 0.286
AGCTAGAT | -0.205
CCCCTTGA | -0.173
TAGGTTCA | -0.0127
TACTTCCA | -0.0505
ATCCACAC | -0.0482
CGTCGGTC | 0.325
AAGTGTCG | -0.0149
ACTAATCG | 0.0876
GAGCACGA | -0.0895
CGCGCTAG | 0.092
GCCATACA | -0.138
GATGATCA | -0.169
CCCGGAGG | 0.136
CACTCTAG | -0.114
GATCACAC | -0.0915

Sequence | PBM E-score
CGGTTCCA | 0.202
GCTGTCAC | 0.0485
AGGGTTTC | 0.0222
AGAACGGG | 0.242
CTGAAAAA | -0.24
CCTTATTC | -0.0931
ACACCGCC | 0.459
ACAACGTA | -0.0956
AGGGTTAC | -0.0791
CGGCCCCG | 0.112
AAATCAAT | -0.279
GCAGGCAA | -0.0838
CTATCTAA | -0.0722
CGATGCAC | -0.0315
AACAAGAT | -0.0682
CAACCGCG | 0.223
AGTCCAGG | -0.159
AACCATGC | -0.0189
AGTTAAAC | -0.00364
AAAGTCAA | -0.0439
ACGGCCAG | -0.138
GCTCTGAC | -0.244
CCGGAACA | 0.18
ACCACATG | -0.237
GGCCCAAC | 0.0296

Sequence | PBM E-score
TAAATGAA | -0.0892
ACTTAGGC | 0.0774
ACCCCGTC | 0.381
CTGCCAAC | -0.2
CACCCTAA | -0.22
GCGCTCAA | -0.0162
CATTCTGA | -0.0401
GGATGGAC | -0.0348
ACAGTTCA | -0.458
CGCCTCCA | -0.0168
ATCACTGC | 0.0552
GTCTGTAA | -0.0447
TCACTGGA | -0.0994
GAACGATC | -0.0814
CCTCCCGA | -0.102
CTACCCGC | 0.0976
TATCAGGA | -0.133
ACAGGTAC | 0.00114
CAAACATC | 0.116
AACGCGCC | 0.0791
AAATAGTT | 0.114
CCCATTGC | 0.0345
